# Measured values from the supplement of paper PMC12217912.
# This is one part of the list. The full chains were built here from the parent and the listed change. Inactive controls read about 0.05.
# B1: TEV protease; numbered along this chain (parent)
# chain: MGESLFKGPRDYNPISSSICHLTNESDGHTTSLYGIGFGPFIITNKHLFRRNNGTLVVQSLHGVFKVKDTTTLQQHLVDGRDMIIIRMPKDFPPFPQKLKFREPQREERICLVTTNFQTKSMSSMVSDTSCTFPSGDGIFWKHWIQTKDGQCGSPLVSTRDGFIVGIHSASNFTNTNNYFTSVPKNFMELLTNQEAQQWVSGWRLNADSVLWGGHKVFMVKPEEPFQPVKEATQL
# Variants of: B1
# Assay: raw area under fraction-flipped curve 0-4 h after induction (AUC4h, not background-subtracted), DNA-recorder readout of cleavage of the substrate (dimensionless); higher = more cleavage of the substrate by the protease variant
# Conditions: temperature: 34 °C; time window: 0-4 h after rhamnose induction
# 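Also: Bxb1 expression induced with 0.2% (w/v) L-rhamnose at OD600 near 0.5, cultures sampled hourly, flipped fraction per protease–substrate barcode pair counted by paired-end Illumina sequencing.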
Variant,area with substrate EDLYFQS,area with substrate EELYFQS,area with substrate EGLYFQS,area with substrate EHLYFQS,area with substrate EILYFQS,area with substrate EKLYFQS,area with substrate ELLYFQS,area with substrate EMLYFQS,area with substrate EPLYFQS,area with substrate EQLYFQS
N206I,0.0992,0.119,0.0787,0.0852,0.107,0.101,0.0935,0.0805,0.0902,0.0825
Y179V,0.0625,–,–,–,–,–,–,–,–,–
Y179I,0.0535,0.0448,0.0632,–,0.0485,–,0.054,–,–,–
E231L,0.0812,–,0.0926,–,0.0826,–,–,0.127,–,0.105
E189H,0.119,0.115,0.0915,–,0.0928,–,–,0.114,–,–
E189R,0.0678,–,–,0.109,0.0984,0.0976,0.0727,0.1,–,0.0882
V58Q,–,–,0.0477,–,0.0487,0.0688,–,0.0527,0.0583,–
T147C,0.0934,–,–,–,0.0631,0.093,0.0519,–,–,0.113
K142Q,0.148,0.104,0.0976,–,0.0902,0.141,0.0844,0.095,–,–
F163T,0.0983,–,–,–,0.0503,–,–,0.098,0.0879,–
G35Q,–,0.05,–,–,–,0.027,–,–,–,0.0495
L211K,0.12,0.101,0.101,–,0.0996,0.0949,–,0.0994,0.0973,0.082
H62C,–,0.131,–,–,0.1,0.126,0.0804,0.132,–,0.0898
A170M,0.0603,–,–,0.0189,0.0648,–,–,–,0.0662,–
F180D,–,0.0648,0.0477,0.0374,0.0397,0.052,0.054,0.0613,0.0545,–
F180A,0.0915,0.0977,0.0983,0.0834,0.0902,–,0.0837,–,0.103,–
L205D,0.108,0.0951,–,–,0.0646,0.0742,–,–,0.0895,0.0753
I145P,0.0549,–,–,–,0.0517,–,–,–,–,–
K148S,–,–,0.093,–,0.0898,0.0957,–,0.106,0.101,–
N177K,0.174,–,–,–,–,0.0765,0.0931,–,–,0.132
N116M,–,–,–,0.13,–,–,–,–,0.117,–

Variant,area with substrate EDLYFQS,area with substrate EELYFQS,area with substrate EGLYFQS,area with substrate EHLYFQS,area with substrate EILYFQS,area with substrate EKLYFQS,area with substrate ELLYFQS,area with substrate EMLYFQS,area with substrate EPLYFQS,area with substrate EQLYFQS
S209L,–,0.0901,–,–,–,0.0574,–,–,–,0.117
P134S,–,–,0.0806,–,0.0815,–,–,0.0959,0.0973,0.0874
S182T,0.129,–,0.0952,0.102,–,–,–,0.108,–,0.117
S182L,0.0656,–,0.0574,0.0691,–,0.0648,–,0.0473,–,–
M83V,–,–,–,–,–,0.0555,0.0785,0.0628,–,–
N178V,–,0.0879,0.0841,0.0655,0.0643,0.0882,0.0669,0.0986,–,–
Q227F,0.102,0.0761,–,–,0.103,–,0.0602,–,–,–
Q227N,0.184,–,–,0.108,0.148,0.0825,0.108,0.118,0.114,0.119
N186S,0.17,0.103,0.0984,–,0.0955,0.112,–,–,–,0.109
N186Q,0.151,0.101,–,–,0.0939,–,0.0982,–,0.141,0.0757
N186K,–,0.114,–,0.0989,0.0956,0.0707,–,0.108,–,0.127
K90Y,–,0.147,–,0.132,–,–,0.113,–,0.078,–
D91L,–,0.1,0.122,0.0831,–,0.132,–,–,–,0.07
M122G,–,0.111,–,–,–,0.113,–,–,–,–
N172K,–,0.0745,–,–,–,–,0.056,–,0.0467,–
A207L,0.101,–,–,–,0.0937,0.091,0.0732,0.0639,–,–
F95T,–,–,0.057,–,0.105,–,0.0569,0.158,–,–
E107F,–,–,0.087,–,0.0862,–,0.118,–,–,0.0974
W203K,0.0949,0.0507,–,0.055,0.0505,0.0913,0.0673,0.05,–,0.0631
G63C,–,0.148,0.0839,0.119,0.0982,0.12,0.0804,0.109,0.0928,0.102

# Same assay, conditions: temperature: 34 °C; time window: 0-4 h after rhamnose induction
Variant,area with substrate ERLYFQS,area with substrate ESLYFQS,area with substrate EVLYFQS,area with substrate EYLYFQS,area with substrate EFLYFQS,area with substrate EWLYFQS,area with substrate ETLYFQS
N206I,0.105,0.117,–,–,–,–,–
Y179V,–,0.0795,–,–,–,–,–
Y179I,–,0.0546,–,–,–,–,–
E231L,0.0901,0.0884,0.0844,0.0723,–,–,–
E189H,–,0.102,–,0.115,0.121,–,–
E189R,–,0.0806,0.128,–,0.0837,0.0911,–
V58Q,–,0.0487,–,0.0519,–,–,–
T147C,–,0.0896,0.0729,–,–,–,–
K142Q,0.106,0.0947,–,–,0.0828,0.0818,–
F163T,–,0.0814,–,0.0837,–,0.096,0.106
G35Q,–,0.0388,–,0.0551,–,–,0.0585
L211K,–,–,–,–,–,0.0758,–
H62C,0.0806,0.0846,0.0941,–,–,–,–
A170M,–,0.0559,–,–,–,–,–
F180D,–,0.0461,–,0.0433,0.0406,0.0494,–
F180A,0.0768,0.081,0.0824,–,–,0.0698,–
L205D,0.0756,0.0974,0.0939,–,–,0.0631,–
I145P,–,–,–,–,–,0.062,–
K148S,–,0.0813,0.0744,–,0.0915,–,–
N177K,–,0.146,–,–,–,0.134,–

Variant,area with substrate ERLYFQS,area with substrate ESLYFQS,area with substrate EVLYFQS,area with substrate EYLYFQS,area with substrate EFLYFQS,area with substrate EWLYFQS,area with substrate ETLYFQS
N116M,–,0.0637,–,–,0.102,–,–
S209L,0.0901,0.112,0.0914,–,0.108,–,–
P134S,0.0885,0.0892,–,–,0.0718,0.0286,–
S182T,–,0.119,0.0688,0.109,–,0.0708,–
S182L,0.0622,0.0568,0.0538,–,–,–,–
M83V,–,–,–,–,0.0671,–,–
N178V,–,–,0.073,–,–,0.0669,–
Q227F,–,0.105,0.0966,–,–,–,–
Q227N,0.131,0.112,–,0.071,0.11,0.0965,–
N186S,0.0996,–,–,–,–,0.0817,–
N186Q,–,0.143,0.105,–,0.103,–,–
N186K,0.0621,0.103,0.108,–,–,–,–
K90Y,0.122,0.0986,0.0968,–,–,0.0663,0.029
D91L,–,0.0735,–,–,–,0.0861,–
N172K,0.0713,–,–,–,–,–,–
A207L,0.0892,0.083,0.111,–,–,–,–
F95T,–,–,0.0533,–,–,–,–
E107F,0.0994,0.122,0.0991,–,–,–,–
W203K,0.0585,0.0675,0.0674,–,–,0.0493,0.0966
G63C,0.0875,0.103,0.0998,0.0977,0.133,–,0.0896
